Assay results taken from PubChem BioAssay AID2147 (National Center for Advancing Translational Sciences (NCATS), 2009).
The whole screen tested about 230,000 compounds, of which about 3,600 (1.6%) were called active. Inconclusive results, whose numbers are uncertain, are shown with a selection of clear calls. The call rests on the fitted dose curve; in most records, active means well fitted inhibition curve with a large enough effect (not every such curve was filed as active); inconclusive means small, poorly fitted or top-dose-only effect, or another doubt; inactive means no such curve, though single readings can be large or run the other way. Potencies of inconclusive entries are doubtful fits and often do not repeat.

These compounds were tested against Lysine-specific demethylase 4E (Homo sapiens) (UniProt B2RXH2) (assay: qHTS Assay for Inhibitors of Human Jumonji Domain Containing 2E (JMJD2E)). Conditions: JMJD2E catalytic domain, FDH-coupled NADH fluorescence (FDH is formaldehyde dehydrogenase); series mostly up to 57.1 µM.
Further: nearly all actives have a fitted effect of over 50% in size.
Potency means the concentration at half of the fitted maximal effect; tags describe the fitted curve by direction and shape.

UniProt B2RXH2, sequence (B2RXH2 whole entry, looked up, the tested form may be a part): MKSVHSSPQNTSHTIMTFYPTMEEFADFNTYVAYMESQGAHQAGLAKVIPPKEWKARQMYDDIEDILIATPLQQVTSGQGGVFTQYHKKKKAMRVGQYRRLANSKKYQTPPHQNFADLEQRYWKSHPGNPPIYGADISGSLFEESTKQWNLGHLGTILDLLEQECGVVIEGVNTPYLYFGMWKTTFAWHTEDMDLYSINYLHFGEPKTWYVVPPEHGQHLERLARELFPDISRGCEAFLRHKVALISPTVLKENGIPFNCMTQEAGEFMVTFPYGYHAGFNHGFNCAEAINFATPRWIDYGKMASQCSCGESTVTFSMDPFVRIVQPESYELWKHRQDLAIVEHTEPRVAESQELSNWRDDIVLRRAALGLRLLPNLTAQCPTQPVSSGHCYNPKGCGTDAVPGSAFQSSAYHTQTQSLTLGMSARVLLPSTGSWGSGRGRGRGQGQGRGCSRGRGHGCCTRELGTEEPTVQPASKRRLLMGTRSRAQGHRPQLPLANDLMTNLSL

Row | SMILES | Potency
1 | CCOc1ccc(CCNC(=O)C2=C(C)C(=O)OC23CCC(C)CC3)cc1 (configuration not stated) | inactive
2 | Nc1ccc2oc(CCc3ccccc3)nc2c1 | inconclusive: 39.8 µM [inhibitor, single point]
3 | COc1ccc(OC)c(NC(=O)CC(NC(C)=O)c2ccccc2)c1 (configuration not stated) | inactive
4 | COc1ccccc1-c1cc(NCc2cccnc2)ncn1 | inconclusive: 25.1 µM [inhibitor, partial curve]
5 | Cn1cc(Cl)c(C(=O)Nc2nc3ccc(Cl)cc3s2)n1 | inconclusive: 7.94 µM [inhibitor, full curve]
6 | CCCn1nc(NC(=O)c2ccco2)c2cc3cc(C)ccc3nc21 | inconclusive: 28.2 µM [inhibitor, partial curve]
7 | COc1ccc(C2c3sc(=O)[nH]c3SC3C4CCC(C4)C23)cc1 (configuration not stated) | inactive
8 | O=C(O)C1CSC(c2coc3ccccc3c2=O)N1 (configuration not stated) | inconclusive: 28.2 µM [inhibitor, partial curve]
9 | O=S(=O)(Nc1cccc2nsnc12)c1ccccc1 | inconclusive: 28.2 µM [inhibitor, single point]
10 | CCCC(=O)Nc1c2c(nc3ccccc13)N(c1ccccc1)CC2 | inconclusive: 25.1 µM [inhibitor, partial curve]
11 | N#Cc1ccc(-c2ccc(OCC(=O)NCCCN3CCCC3=O)cc2)cc1 | inconclusive: 31.6 µM [inhibitor, partial curve]
12 | Cc1cc(N2CCN(c3ccc(F)cc3)CC2)nc(-c2ccccc2)n1 | inconclusive: 39.8 µM [inhibitor, single point]
13 | CC(=O)NC(Cc1ccccc1C)C(=O)NC1CCN(C(=O)c2cccc(C)c2)CC1 (configuration not stated) | inactive
14 | Cc1ccc(N(Cc2cc3ccccc3[nH]c2=O)C(=O)c2cccs2)cc1 | inconclusive: 39.8 µM [inhibitor, single point]
15 | COc1ccc(-c2nc3ncccn3c2Nc2ccccc2)cc1 | inconclusive: 39.8 µM [inhibitor, single point]
16 | Cc1ccccc1Nc1nnc(SCc2cc([N+](=O)[O-])cc3c2OCOC3)s1 | inconclusive: 8.91 µM [inhibitor, single point]
17 | CN(CCC#N)S(=O)(=O)c1ccc2[nH]cc(C(=O)NCCc3ccccc3)c(=O)c2c1 | inconclusive: 39.8 µM [inhibitor, single point]
18 | CCOC(=O)C1=C(O)/C(=C/c2cc(C)n(-c3ccccc3)c2C)N=C1C | inconclusive: 28.2 µM [inhibitor, single point]
19 | Cc1ccc2nc(NCc3ccccc3)c(C=NCc3ccccc3)c(=O)n2c1 | inconclusive: 35.5 µM [inhibitor, single point]
20 | CCOc1ccc(S(=O)(=O)NCc2ccc(Cl)cc2)c2cccnc12 | inconclusive: 28.2 µM [inhibitor, partial curve]
21 | CC(C)(S)[C@@H](N)C(=O)O | active: 2.24 µM

Row | SMILES | Potency
22 | COc1ccc(NC(=O)COc2ccc(C(=O)NC3CCCc4ccccc43)cc2OC)cc1 (configuration not stated) | inactive
23 | CCn1c(=N)n(CC(=O)c2cccc(OC)c2)c2ccccc21 | inconclusive: 25.1 µM [inhibitor, single point]
24 | NNC(=S)Nc1cccc(-c2n[nH]c(=S)o2)c1 | inconclusive: 31.6 µM [inhibitor, partial curve]
25 | Cc1ccc(C(=O)Nc2ccc(S(=O)(=O)N3CCCC3)cc2)s1 | inconclusive: 35.5 µM [inhibitor, single point]
26 | CCN(CC(=O)Nc1c(C(=O)OC)[nH]c2ccc(Cl)cc12)c1ccc2c(c1)OCO2 | inconclusive: 39.8 µM [inhibitor, single point]
27 | NS(=O)(=O)c1ccc(NC(=S)NCCc2ccccc2)cc1 | inactive
28 | CC(CNCC1CCCO1)COc1cccc2ccccc12 (configuration not stated) | inconclusive: 39.8 µM [inhibitor, single point]
29 | COc1ccc(C(=O)C2CCCN(C(=O)c3noc4c3CCCC4)C2)c(C)c1 (configuration not stated) | inconclusive: 22.4 µM [inhibitor, partial curve]
30 | CSc1nsc(/C=C/Nc2ccc(F)cc2)c1C#N | inconclusive: 22.4 µM [inhibitor, single point]
31 | CCOC(=O)Cn1c(=O)c2c(nc(Br)n2CC(=O)OCC)n(C)c1=O | inconclusive: 35.5 µM [inhibitor, single point]
32 | Cc1ccc(S(=O)(=O)N(C(=O)c2ccncc2)c2ccc(OC(=O)c3ccncc3)c3ccccc23)c(C)c1 | inconclusive: 31.6 µM [inhibitor, single point]
33 | C#CCOCCOCCOCCNc1nc(N2CCN(C(=O)[C@H](Cc3cc4ccccc4[nH]3)n3cc([C@@H](N)CC(C)C)nn3)CC2)nc(N2CCN(C(=O)[C@H](Cc3cc4ccccc4[nH]3)n3cc([C@@H](N)CC(C)C)nn3)CC2)n1 | inconclusive: 39.8 µM [inhibitor, single point]
34 | COc1cc(O)c2c(=O)c(O)c(-c3ccc(O)c(O)c3)oc2c1 | active: 22.4 µM
35 | O=C(/C=C/c1ccccn1)c1ccc(Br)cc1O | inconclusive: 31.6 µM [inhibitor, single point]
36 | CCN(CC)S(=O)(=O)c1cccc(-c2cn3cccnc3n2)c1 | inconclusive: 31.6 µM [inhibitor, partial curve]
37 | Cc1c(Nc2c3ccccc3nc3ccccc23)c(=O)n(-c2ccccc2)n1C | inconclusive: 10 µM [inhibitor, partial curve]
38 | CC1=C(C(=O)Nc2cc(C)ccn2)C(c2cnn(C)c2)C2=C(CC(c3ccccc3)CC2=O)N1 (configuration not stated) | inconclusive: 31.6 µM [inhibitor, partial curve]
39 | CC(/C=C/c1ccc2c(c1)OCO2)=N/NC(=O)C1COc2ccccc2O1 (configuration not stated) | inconclusive: 39.8 µM [inhibitor, single point]
40 | CCOC(=O)N1CCN(C(=O)/C(=C/c2ccc(OC)c(OC)c2)NC(=O)c2ccccc2)CC1 | inconclusive: 39.8 µM [inhibitor, single point]
41 | Cc1c(/C=N/NC(=O)COc2ccccc2[N+](=O)[O-])c2ccccc2n1C | inactive
42 | O=C(Nc1ccc(-c2nc3ncccc3o2)cc1)c1ccco1 | inconclusive: 31.6 µM [inhibitor, partial curve]
